Where a chain is given by its changes, count along the chain named. Recombinant human monoclonal antibodies (heavy:light variable regions). ELISA EC50 on the named antigen, from 10 µg/ml down; IC50 / IC90 against spike pseudovirus on 293T-ACE2 cells, 48 h; lower = stronger. Calls: IC50 above 1,000 ng/ml = non-neutralizing; EC50 above 2,000 ng/ml = non-binder. The source prints 1000 for neutralization that was not reached; it is given as >1000 ng/ml. A few antibodies were first reported in earlier work of the same group.
B1: C2019 (protein)
chain 1: EVQLVESGGGLIQPGGSLRLSCAASGFIVSSNYMSWVRQAPGKGLEWVSVIYSGGSTYYADSVKGRFTISRDNSKNTLYLQMNSLRAEDTAVYYCARDYGDFYFDYWGQGTLVTVSS
chain 2: not shown
B2: C1389 (protein)
chain 1: QVQLVQSGAEVKKPGSSVKVSCKASGYTFSSFVISWVRQAPGQGLEWMGGIIPDFGTANYAETFQDRVTITADESTSTSYMRLSSLRSDDTAVYYCARGLIPAAWYFDRWGQGTLVTVSS
chain 2: EIVMTQSPATLSVSPGERATLSCRASQSVSGNLVWYQQKPGQAPRLLIYGASTRATGIPARFSGSGSGTEFTLTISSLQSEDFAVYYCQHYDNWFLTFGPGTKVDIK
B3: C1391 (protein)
chain 1: EVQLVESGGGLVQPGRSLRLSCAASGFTFDDYAIHWVRQAPGKGLEWVSGMSWNSGTIGYADSVKGRFIISRDNAKNSLYLQMNSLRAEDTALYYCAKARLTGTNPWKFGEDAMDVWGQGTTVTVSS
chain 2: DIVMTQSPDSLAVSLGERATINCKSSQSVLYSSNNKNYLAWYQQKPGQPPNLLIYWASTRESGVPDRFSGSGSGTDFTLTISSLQAEDVAVYYCQQYYNTPLTFGGGTKVEIK
B4: C1393 (protein)
chain 1: EVQLVESGGGLVQPGRSLRLSCAASGFTFDDYAMHWVRQAPGKGLEWVSGISWNSGSIGYADSVKGRFTISRDNAKNSLYLQMNSLRLEDTALYYCAKNVYDSSGFYLDYWGQGTLVTVSS
chain 2: SYELTQPPSVSVSPGQTATITCSGDKLGHKYTSWYQQKPGQSPVLVIYQDDKRPSGIPERFSGSNSGNTATLTISGTQAMDEADYYCQAWDSITLIFGGGTKLTVL
B5: C1394 (protein)
chain 1: VQLVESGGGVVQPGKSLRLSCAAPGFPFSSYAMHWVRQAPGKGLEWVAVISYDGTQKYYADSLKGRFTISRDNSKNTFYLQMNRLRPEDTAVYYCAKGSGTYYLMQVDYWGQGTLVTVSS
chain 2: DIVMTQSPDSLAVSLGERATINCKSSQSVLYSSNNKNYLAWYQQKPGQPPKLLIYWASTRESGVPDRFSGSGSGTDFTLTISSLQAEDVAVYYCQQYYSTPTFGGGTKVEIK
B6: C1395 (protein)
chain 1: QVQLQESGPGLMKPSQTLSLTCSVSGDSIRSGNNHWSWIRQPAGKGLEWIGRVYMSGDTHYNPSLKSRVTISVDTSKNHFSLKLSSVTAADTAVYYCTRGLRFLDYPVLDVWGTGTTVTVSS
chain 2: SYELTQPPSVSVAPGQTARITCGGNNIGSKSVHWFQLKPGQAPVLVVYDNSDRPSGIPERFSGSNSGNTATVTISRVEAGDEADYCCQVWDSSSDHPVFGGGTKLTVL
B7: C1397 (protein)
chain 1: QVQLQESGPGLVKPSETLSLTCTVSGASISSYYWSWIRQPPGKGLECIGYIYYSGSTNYNPSLKSRVTISVDTSKNQFSLKLSSVTAADTAVYYCARQRRSTSWSLLDYWGQGTLVTVSS
chain 2: B2 chain 2 with G31S, V34A, H90Q, D92N, F95P, L96E, P100Q, D105E
B8: C1398 (protein)
chain 1: B1 chain 1 with F27I, I28T, Y58F, G100M, D101L, F102R, Y103G, F104G, D105E, Y106D
chain 2: IRMTQSPSSLSASVGDRVTITCQASQDIRYFLNWYQQKPGKAPKLLIYDASNLETGVPSRFSGSGSGTDFTFTISSLQPEDIATYYCHQYDNLPRTYGQGTKLEIK
B9: C1399 (protein)
chain 1: QLQLQESGPGLVKPSETLSLTCTVSGGSISSSSYYWGWIRQPPGKGLEWIGSIYYTGITYYNPSLKSRATIYVDTSKNQFSLRLSSVTAADTAVFYCARHSRMYSDAYYTHSFDSWGQGTLVTVSS
chain 2: QSALTQPASVSGSPGQSITISCTGTSSDVGSYDLVSWYQQHPGKAPKLMIYEVIKRPSGVSIRFSGSKSGNTASLTISGLQAEDEADYYCCSYAGNYVFGTGTKLIVL

biological target: SARS-CoV-2 Wuhan-Hu-1 spike pseudovirus; assay: pseudovirus neutralization IC50; higher = weaker neutralization
Protocol: (§1)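 Single-round luciferase reporter pseudovirus mixed with antibody dilutions and put on 293T-ACE2 cells for 48 h; signal relative to no-antibody wells, four-parameter fit.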

Binder | pseudovirus neutralization IC50 [mg/L]
B1 | 0.127
B2 | 0.0789
B3 | 0.0823
B4 | 0.0326
B5 | > 1
B6 | > 1
B7 | > 1
B8 | 0.00647
B9 | > 1

biological target: SARS-CoV-2 Wuhan-Hu-1 spike pseudovirus; assay: pseudovirus neutralization IC90; higher = weaker neutralization
Protocol: as §1

Binder | pseudovirus neutralization IC90 [mg/L]
B1 | 0.809
B2 | 0.407
B3 | 0.905
B4 | 0.185
B5 | > 1
B6 | > 1
B7 | > 1
B8 | 0.0254
B9 | > 1

biological target: SARS-CoV-2 Wuhan-Hu-1 spike receptor-binding domain; assay: ELISA binding EC50; higher = weaker binding; ELISA of recombinant human antibody on coated antigen, from 10 µg/ml in fourfold dilutions; four-parameter fit.

Binder | ELISA binding EC50 [mg/L]
B1 | 0.00279
B2 | 0.00185
B3 | 0.00183
B4 | 0.00484
B5 | > 10
B6 | > 10
B7 | 0.291
B8 | 0.00132
B9 | 0.00355

From the supplement of paper PMC8674133
